Data reported in the supplement of paper PMC9151546.
Single values are uncertain, as repeats are few or missing.

How the values were obtained:
CHO-K1 [1] = test: micronucleus frequency (% of nucleated events); higher = more micronuclei (genotoxic)
CHO-K1 [2] = test: relative survival (nuclei to bead ratio vs DMSO control) (% of vehicle control); higher = more surviving cells
CHO-K1 [3] = test: hypodiploid nuclei frequency (% of nucleated events); higher = more hypodiploid events (aneugenic)
[4] = concentration: 4.5 (µM), S9 metabolic activation: with S9, exposure time: 3-4 hours
[5] = concentration: 4.5 (µM), S9 metabolic activation: without S9, exposure time: 24 hours
[6] = concentration: 5.63 (µM), S9 metabolic activation: with S9, exposure time: 3-4 hours
[7] = concentration: 5.63 (µM), S9 metabolic activation: without S9, exposure time: 24 hours
[8] = concentration: 7.04 (µM), S9 metabolic activation: with S9, exposure time: 3-4 hours
[9] = concentration: 7.04 (µM), S9 metabolic activation: without S9, exposure time: 24 hours
[10] = concentration: 8.8 (µM), S9 metabolic activation: with S9, exposure time: 3-4 hours
[11] = concentration: 8.8 (µM), S9 metabolic activation: without S9, exposure time: 24 hours
[12] = concentration: 11 (µM), S9 metabolic activation: with S9, exposure time: 3-4 hours
[13] = concentration: 11 (µM), S9 metabolic activation: without S9, exposure time: 24 hours
[14] = concentration: 13.7 (µM), S9 metabolic activation: with S9, exposure time: 3-4 hours
[15] = concentration: 13.7 (µM), S9 metabolic activation: without S9, exposure time: 24 hours
[16] = concentration: 17.2 (µM), S9 metabolic activation: with S9, exposure time: 3-4 hours
[17] = concentration: 17.2 (µM), S9 metabolic activation: without S9, exposure time: 24 hours
[18] = concentration: 21.5 (µM), S9 metabolic activation: with S9, exposure time: 3-4 hours
[19] = concentration: 21.5 (µM), S9 metabolic activation: without S9, exposure time: 24 hours
[20] = concentration: 26.8 (µM), S9 metabolic activation: with S9, exposure time: 3-4 hours
[21] = concentration: 26.8 (µM), S9 metabolic activation: without S9, exposure time: 24 hours
[22] = concentration: 33.6 (µM), S9 metabolic activation: with S9, exposure time: 3-4 hours
[23] = concentration: 33.6 (µM), S9 metabolic activation: without S9, exposure time: 24 hours
[24] = concentration: 41.9 (µM), S9 metabolic activation: with S9, exposure time: 3-4 hours
[25] = concentration: 41.9 (µM), S9 metabolic activation: without S9, exposure time: 24 hours
[26] = concentration: 52.4 (µM), S9 metabolic activation: with S9, exposure time: 3-4 hours
[27] = concentration: 52.4 (µM), S9 metabolic activation: without S9, exposure time: 24 hours
[28] = concentration: 65.5 (µM), S9 metabolic activation: with S9, exposure time: 3-4 hours
[29] = concentration: 65.5 (µM), S9 metabolic activation: without S9, exposure time: 24 hours
[30] = concentration: 81.9 (µM), S9 metabolic activation: with S9, exposure time: 3-4 hours
[31] = concentration: 81.9 (µM), S9 metabolic activation: without S9, exposure time: 24 hours
[32] = concentration: 102 (µM), S9 metabolic activation: with S9, exposure time: 3-4 hours
[33] = concentration: 102 (µM), S9 metabolic activation: without S9, exposure time: 24 hours
[34] = concentration: 128 (µM), S9 metabolic activation: with S9, exposure time: 3-4 hours
[35] = concentration: 128 (µM), S9 metabolic activation: without S9, exposure time: 24 hours
[36] = concentration: 160 (µM), S9 metabolic activation: with S9, exposure time: 3-4 hours
[37] = concentration: 160 (µM), S9 metabolic activation: without S9, exposure time: 24 hours
[38] = concentration: 200 (µM), S9 metabolic activation: with S9, exposure time: 3-4 hours
[39] = concentration: 200 (µM), S9 metabolic activation: without S9, exposure time: 24 hours
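For hypodiploid nuclei frequency (% of nucleated events) in this document: hypodiploid nuclei gated on a flow cytometer with 488 nm excitation after SYTOX Green staining, cultures at 37 °C, positive controls vinblastine without S9 and cyclophosphamide with S9.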
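For micronucleus frequency (% of nucleated events) in this document: cells lysed with nuclei stained by SYTOX Green, then micronucleus-gated events counted against nucleated events by flow cytometry with 488 nm excitation.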
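For relative survival (nuclei to bead ratio vs DMSO control) in this document: Lysed-cell nuclei stained with SYTOX Green and counted against counting beads by flow cytometry at 488 nm excitation, with vinblastine (no S9) and cyclophosphamide (plus S9) as positive controls.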

What does the source list for O=[N+]([O-])c1ccc(Oc2ccc(Cl)cc2Cl)cc1 [Nitrofen]?
micronucleus frequency (CHO-K1 [1]; [4]): 0.92%; micronucleus frequency (CHO-K1 [1]; [5]): 1.56%; micronucleus frequency (CHO-K1 [1]; [6]): 1.26%; micronucleus frequency (CHO-K1 [1]; [7]): 1.42%; micronucleus frequency (CHO-K1 [1]; [8]): 0.98%; micronucleus frequency (CHO-K1 [1]; [9]): 2%; micronucleus frequency (CHO-K1 [1]; [10]): 1.54%; micronucleus frequency (CHO-K1 [1]; [11]): 1.42%; micronucleus frequency (CHO-K1 [1]; [12]): 1.72%; micronucleus frequency (CHO-K1 [1]; [13]): 2.24%; micronucleus frequency (CHO-K1 [1]; [14]): 1.22%; micronucleus frequency (CHO-K1 [1]; [15]): 1.9%; micronucleus frequency (CHO-K1 [1]; [16]): 1.14%; micronucleus frequency (CHO-K1 [1]; [17]): 1.32%; micronucleus frequency (CHO-K1 [1]; [18]): 0.98%; micronucleus frequency (CHO-K1 [1]; [19]): 1.52%; micronucleus frequency (CHO-K1 [1]; [20]): 1.58%; micronucleus frequency (CHO-K1 [1]; [21]): 1.54%; micronucleus frequency (CHO-K1 [1]; [22]): 0.96%; micronucleus frequency (CHO-K1 [1]; [23]): 2%; micronucleus frequency (CHO-K1 [1]; [24]): 0.8%; micronucleus frequency (CHO-K1 [1]; [25]): 1.5%; micronucleus frequency (CHO-K1 [1]; [26]): 0.66%; micronucleus frequency (CHO-K1 [1]; [27]): 1.5%; micronucleus frequency (CHO-K1 [1]; [28]): 0.9%; micronucleus frequency (CHO-K1 [1]; [29]): 1.9%; micronucleus frequency (CHO-K1 [1]; [30]): 1.1%; micronucleus frequency (CHO-K1 [1]; [31]): 2.32%; micronucleus frequency (CHO-K1 [1]; [32]): 0.86%; micronucleus frequency (CHO-K1 [1]; [33]): 2.48%; micronucleus frequency (CHO-K1 [1]; [34]): 0.68%; micronucleus frequency (CHO-K1 [1]; [35]): 2.9%; micronucleus frequency (CHO-K1 [1]; [36]): 1.24%; micronucleus frequency (CHO-K1 [1]; [37]): 2.56%; micronucleus frequency (CHO-K1 [1]; [38]): 1.1%; micronucleus frequency (CHO-K1 [1]; [39]): 2.62%; relative survival (CHO-K1 [2]; [4]): 125; relative survival (CHO-K1 [2]; [5]): 103; relative survival (CHO-K1 [2]; [6]): 111; relative survival (CHO-K1 [2]; [7]): 88.8; relative survival (CHO-K1 [2]; [8]): 116; relative survival (CHO-K1 [2]; [9]): 107; relative survival (CHO-K1 [2]; [10]): 112; relative survival (CHO-K1 [2]; [11]): 101; relative survival (CHO-K1 [2]; [12]): 111; relative survival (CHO-K1 [2]; [13]): 99.8; relative survival (CHO-K1 [2]; [14]): 126; relative survival (CHO-K1 [2]; [15]): 105; relative survival (CHO-K1 [2]; [16]): 102; relative survival (CHO-K1 [2]; [17]): 93.8; relative survival (CHO-K1 [2]; [18]): 131; relative survival (CHO-K1 [2]; [19]): 89.8; relative survival (CHO-K1 [2]; [20]): 142; relative survival (CHO-K1 [2]; [21]): 83.7; relative survival (CHO-K1 [2]; [22]): 126; relative survival (CHO-K1 [2]; [23]): 87.2; relative survival (CHO-K1 [2]; [24]): 128; relative survival (CHO-K1 [2]; [25]): 101; relative survival (CHO-K1 [2]; [26]): 93.5; relative survival (CHO-K1 [2]; [27]): 93.8; relative survival (CHO-K1 [2]; [28]): 105; relative survival (CHO-K1 [2]; [29]): 88.5; relative survival (CHO-K1 [2]; [30]): 99.7; relative survival (CHO-K1 [2]; [31]): 85.9; relative survival (CHO-K1 [2]; [32]): 57.5; relative survival (CHO-K1 [2]; [33]): 73.3; relative survival (CHO-K1 [2]; [34]): 86; relative survival (CHO-K1 [2]; [35]): 59.8; relative survival (CHO-K1 [2]; [36]): 62.6; relative survival (CHO-K1 [2]; [37]): 58.3; relative survival (CHO-K1 [2]; [38]): 56.8; relative survival (CHO-K1 [2]; [39]): 47.5; hypodiploid nuclei frequency (CHO-K1 [3]; [4]): 0.26%; hypodiploid nuclei frequency (CHO-K1 [3]; [5]): 1.12%; hypodiploid nuclei frequency (CHO-K1 [3]; [6]): 0.3%; hypodiploid nuclei frequency (CHO-K1 [3]; [7]): 0.88%; hypodiploid nuclei frequency (CHO-K1 [3]; [8]): 0.14%; hypodiploid nuclei frequency (CHO-K1 [3]; [9]): 0.86%; hypodiploid nuclei frequency (CHO-K1 [3]; [10]): 0.18%; hypodiploid nuclei frequency (CHO-K1 [3]; [11]): 0.76%; hypodiploid nuclei frequency (CHO-K1 [3]; [12]): 0.22%; hypodiploid nuclei frequency (CHO-K1 [3]; [13]): 0.78%; hypodiploid nuclei frequency (CHO-K1 [3]; [14]): 0.22%; hypodiploid nuclei frequency (CHO-K1 [3]; [15]): 0.72%; hypodiploid nuclei frequency (CHO-K1 [3]; [16]): 0.22%; hypodiploid nuclei frequency (CHO-K1 [3]; [17]): 0.52%; hypodiploid nuclei frequency (CHO-K1 [3]; [18]): 0.14%; hypodiploid nuclei frequency (CHO-K1 [3]; [19]): 0.72%; hypodiploid nuclei frequency (CHO-K1 [3]; [20]): 0.3%; hypodiploid nuclei frequency (CHO-K1 [3]; [21]): 0.72%; hypodiploid nuclei frequency (CHO-K1 [3]; [22]): 0.18%; hypodiploid nuclei frequency (CHO-K1 [3]; [23]): 0.72%; hypodiploid nuclei frequency (CHO-K1 [3]; [24]): 0.34%; hypodiploid nuclei frequency (CHO-K1 [3]; [25]): 0.82%; hypodiploid nuclei frequency (CHO-K1 [3]; [26]): 0.24%; hypodiploid nuclei frequency (CHO-K1 [3]; [27]): 0.68%; hypodiploid nuclei frequency (CHO-K1 [3]; [28]): 0.04%; hypodiploid nuclei frequency (CHO-K1 [3]; [29]): 1.04%; hypodiploid nuclei frequency (CHO-K1 [3]; [30]): 0.26%; hypodiploid nuclei frequency (CHO-K1 [3]; [31]): 1.02%; hypodiploid nuclei frequency (CHO-K1 [3]; [32]): 0.26%; hypodiploid nuclei frequency (CHO-K1 [3]; [33]): 0.78%; hypodiploid nuclei frequency (CHO-K1 [3]; [34]): 0.26%; hypodiploid nuclei frequency (CHO-K1 [3]; [35]): 1.32%; hypodiploid nuclei frequency (CHO-K1 [3]; [36]): 0.3%; hypodiploid nuclei frequency (CHO-K1 [3]; [37]): 1.06%; hypodiploid nuclei frequency (CHO-K1 [3]; [38]): 0.24%; hypodiploid nuclei frequency (CHO-K1 [3]; [39]): 1.32%
